Data on 14 molecules can be found in patent publication US10299477B2 (priority 2015, dated 2019).

What all share (type): in vivo
For test [1], the system named is Blumeria graminis f sp. hordei. The test is described as follows: Test Example D: Powdery mildew on barley. Conditions: for Test D (control value class, powdery mildew on barley): in vivo; for Test D control value (powdery mildew on barley): preventive, control value class. The text has this:
[Test Example D] Powdery Mildew on Barley
After the sprayed dilutions were dried, conidia of Blumeria graminis f sp. hordei were inoculated to the plants by shaking off.

For another test, the system named is Botrytis cinerea. Put plainly: Test Example B: Gray mold on tomato. Conditions: for Test B (control value class, gray mold on tomato): in vivo; for Test B control value (gray mold on tomato): preventive, control value class. The text has this:
[Test Example B] Gray Mold on Tomato
Seeds of a test plant (tomato variety: Oogata Fukuju) were planted followed by cultivating until three to five first leaves (true leaves) appeared.

A further test has as its system Plasmopara viticola. Put plainly: Test Example G: Downy mildew on vine. Particulars: for Test G (control value class, downy mildew on vine): 250 ppm, sprayed 2.5 ml/pot before inoculation, evaluated 7-10 days after inoculation; for Test G control value (downy mildew on vine): 250 ppm spray (2.5 ml/pot), preventive, control value class. The text has this: [Test Example G] Downy Mildew on Vine
Seeds of a test plant (grape variety: Neomuscat) were planted followed by cultivating until three to four first leaves appeared. […] After the sprayed dilutions were dried, a zoosporangia suspension (1-2×10^4 zoosporangia/ml) of Plasmopara viticola was inoculated to the plants by spraying.

The subject of the next test is Alternaia brassicicola. The test is described as follows: Test Example C: Alternaria sooty spot on cabbage. Conditions: for Test C (control value class, Alternaria sooty spot on cabbage): in vivo; for Test C control value (Alternaria sooty spot on cabbage): preventive, control value class. The text has this: [Test Example C] Alternaria Sooty Spot on Cabbage
Seeds of a test plant (cabbage variety: Shikidori) were planted followed by cultivating until the cotyledons extended.

The test system of a further test is Puccinia recondita. Put plainly: Test Example E: Brown rust on wheat. Conditions: for Test E (control value class, brown rust on wheat): in vivo; for Test E control value (brown rust on wheat): preventive, control value class. The text has this: [Test Example E] Brown Rust on Wheat

`CCn1c(-c2c(F)cc(OC)cc2F)c(-c2ccccc2Br)ccc1=O` [Compound 667]: the “Test D (control value class, powdery mildew on barley)” value in test [1] was “H (H shows more than 50% of control values)”. Besides, in the test on Botrytis cinerea, the “Test B (control value class, gray mold on tomato)” value is given as “H (H shows more than 50% of control values)”. Moreover, the “Test G (control value class, downy mildew on vine)” value in the test with Plasmopara viticola is on record as “H (H shows more than 50% of control values)”. Moreover, the “Test C (control value class, Alternaria sooty spot on cabbage)” value in the test with Alternaia brassicicola was “H (H shows more than 50% of control values)”. Moreover, the “Test E (control value class, brown rust on wheat)” value in the test on Puccinia recondita is on record as “H (H shows more than 50% of control values)”.

Turning to `COc1cc(OC)c(Cl)c(-c2ccc(=O)n(C)c2-c2c(F)cc(Br)cc2F)c1` [Compound 205], in test [1] (250 ppm spray), the “Test D control value (powdery mildew on barley)” value (from here on “Test D control value”) is listed as “H (H shows more than 50% of control values)”. Moreover, in the test with Botrytis cinerea (250 ppm spray), the “Test B control value (gray mold on tomato)” value (shortened to “Test B control value”) is given as “H (H shows more than 50% of control values)”. Further, the “Test G control value (downy mildew on vine)” value (“Test G control value” for short) in the test with Plasmopara viticola (7-10 days after inoculation) is “H (H shows more than 50% of control values)”. For the same molecule, in the test on Alternaia brassicicola (250 ppm spray), the “Test C control value (Alternaria sooty spot on cabbage)” value (shortened to “Test C control value”) is given as “H (H shows more than 50% of control values)”. Further, the “Test E control value (brown rust on wheat)” value (“Test E control value” below) in the test with Puccinia recondita (250 ppm spray) is given as “H (H shows more than 50% of control values)”.

On to `O=c1ccc(-c2ccc(F)cc2F)c(-c2c(F)cccc2F)n1CC(F)F` [Compound 647], for which, in test [1], the “Test D (control value class, powdery mildew on barley)” value is recorded as “H (H shows more than 50% of control values)”. For the same molecule, the “Test B (control value class, gray mold on tomato)” value in the test on Botrytis cinerea is “H (H shows more than 50% of control values)”. Besides, the “Test G (control value class, downy mildew on vine)” value in the test with Plasmopara viticola is reported as “H (H shows more than 50% of control values)”. Moreover, in the test on Alternaia brassicicola, the “Test C (control value class, Alternaria sooty spot on cabbage)” value is on record as “H (H shows more than 50% of control values)”. For the same molecule, the “Test E (control value class, brown rust on wheat)” value in the test with Puccinia recondita is recorded as “H (H shows more than 50% of control values)”.

For `COc1ccc(-c2cc(Cl)c(=O)n(C)c2-c2c(F)cccc2F)c(Cl)c1` [Compound 743], the “Test D (control value class, powdery mildew on barley)” value in test [1] is recorded as “H (H shows more than 50% of control values)”. Further, the “Test B (control value class, gray mold on tomato)” value in the test with Botrytis cinerea was “H (H shows more than 50% of control values)”. Besides, the “Test G (control value class, downy mildew on vine)” value with Plasmopara viticola is “L (L shows 50% or less of control values)”. Moreover, the “Test C (control value class, Alternaria sooty spot on cabbage)” value with Alternaia brassicicola was “H (H shows more than 50% of control values)”. In addition, the “Test E (control value class, brown rust on wheat)” value in the test on Puccinia recondita is “H (H shows more than 50% of control values)”.

With `CCn1c(-c2c(F)cc(F)cc2F)c(-c2cc(F)c(F)cc2F)cc(Cl)c1=O` [Compound 636], the “Test D (control value class, powdery mildew on barley)” value in test [1] is listed as “L (L shows 50% or less of control values)”. Further, in the test on Botrytis cinerea, the “Test B (control value class, gray mold on tomato)” value was “H (H shows more than 50% of control values)”. Also, in the test on Plasmopara viticola, the “Test G (control value class, downy mildew on vine)” value was “L (L shows 50% or less of control values)”. The “Test C (control value class, Alternaria sooty spot on cabbage)” value with Alternaia brassicicola was “H (H shows more than 50% of control values)”. Besides, the “Test E (control value class, brown rust on wheat)” value with Puccinia recondita is recorded as “H (H shows more than 50% of control values)”.

Take `CCn1c(-c2c(F)cccc2F)c(-c2cc(OCOCCOC)ccc2Cl)ccc1=O` [Compound 330]: the “Test D control value” value in test [1] (250 ppm spray) is “H (H shows more than 50% of control values)”. Also, the “Test B control value” value in the test on Botrytis cinerea (250 ppm spray) was “H (H shows more than 50% of control values)”. For the same molecule, the “Test G control value” value in the test on Plasmopara viticola (7-10 days after inoculation) is reported as “H (H shows more than 50% of control values)”. Moreover, the “Test C control value” value in the test with Alternaia brassicicola (250 ppm spray) is “L (L shows 50% or less of control values)”. The “Test E control value” value with Puccinia recondita (250 ppm spray) is listed as “H (H shows more than 50% of control values)”.

Consider `CCn1c(-c2c(F)cc(OC)cc2F)c(-c2cc(F)cc(F)c2Cl)cc(Cl)c1=O` [Compound 666], for which the “Test D (control value class, powdery mildew on barley)” value in test [1] was “H (H shows more than 50% of control values)”. Besides, the “Test B (control value class, gray mold on tomato)” value in the test with Botrytis cinerea is reported as “H (H shows more than 50% of control values)”. Further, in the test with Plasmopara viticola, the “Test G (control value class, downy mildew on vine)” value is recorded as “H (H shows more than 50% of control values)”. Further, the “Test C (control value class, Alternaria sooty spot on cabbage)” value with Alternaia brassicicola was “H (H shows more than 50% of control values)”. The “Test E (control value class, brown rust on wheat)” value in the test with Puccinia recondita is reported as “H (H shows more than 50% of control values)”.

Turning to `COc1cc(OC)cc(C2=C(c3ccccc3F)N(C)C(=O)CC2)c1` [Compound 226], the “Test D control value” value in test [1] (250 ppm spray) is given as “L (L shows 50% or less of control values)”. For the same molecule, the “Test B control value” value with Botrytis cinerea (250 ppm spray) is given as “H (H shows more than 50% of control values)”. Moreover, the “Test G control value” value with Plasmopara viticola (7-10 days after inoculation) is recorded as “H (H shows more than 50% of control values)”. In addition, the “Test C control value” value in the test with Alternaia brassicicola (250 ppm spray) is listed as “H (H shows more than 50% of control values)”. The “Test E control value” value in the test on Puccinia recondita (250 ppm spray) is listed as “H (H shows more than 50% of control values)”.

In the case of `Cn1c(-c2c(F)cccc2F)c(-c2cc(F)ccc2F)ccc1=O` [Compound 483], in test [1] (powdery mildew on barley, 250 ppm spray), the “Test D (control value class)” value is given as “H (H shows more than 50% of control values)”. Moreover, in the test on Botrytis cinerea (gray mold on tomato, Botrytis cinerea, 250 ppm spray), the “Test B (control value class)” value is listed as “H (H shows more than 50% of control values)”. Further, the “Test G (control value class)” value in the test with Plasmopara viticola (downy mildew on vine, Plasmopara viticola, 250 ppm spray, 7-10 days after inoculation) is “H (H shows more than 50% of control values)”. Besides, the “Test C (control value class)” value in the test on Alternaia brassicicola (Alternaria sooty spot on cabbage, 250 ppm spray) is reported as “H (H shows more than 50% of control values)”. For the same molecule, the “Test E (control value class)” value with Puccinia recondita (brown rust on wheat, Puccinia recondita, 250 ppm spray) was “H (H shows more than 50% of control values)”.

As for `CCn1c(-c2c(F)cccc2F)c(-c2cc(OCCC3OCCCO3)ccc2Cl)ccc1=O` [Compound 317], the “Test D control value” value in test [1] (250 ppm spray) is given as “H (H shows more than 50% of control values)”. The “Test B control value” value with Botrytis cinerea (250 ppm spray) is “H (H shows more than 50% of control values)”. Besides, the “Test G control value” value in the test on Plasmopara viticola (7-10 days after inoculation) was “L (L shows 50% or less of control values)”. Also, in the test with Alternaia brassicicola (250 ppm spray), the “Test C control value” value was “H (H shows more than 50% of control values)”. Also, in the test on Puccinia recondita (250 ppm spray), the “Test E control value” value is “H (H shows more than 50% of control values)”.

Consider `Cn1c(-c2c(F)cc(F)cc2F)c(-c2ccccc2Cl)cc(Br)c1=O` [Compound 720], for which, in test [1], the “Test D (control value class, powdery mildew on barley)” value was “H (H shows more than 50% of control values)”. Moreover, the “Test B (control value class, gray mold on tomato)” value with Botrytis cinerea was “H (H shows more than 50% of control values)”. In addition, the “Test G (control value class, downy mildew on vine)” value in the test on Plasmopara viticola is “H (H shows more than 50% of control values)”. Moreover, the “Test C (control value class, Alternaria sooty spot on cabbage)” value in the test on Alternaia brassicicola was “H (H shows more than 50% of control values)”. For the same molecule, the “Test E (control value class, brown rust on wheat)” value in the test with Puccinia recondita is on record as “H (H shows more than 50% of control values)”.

Take `CC(C)Oc1ccc(Cl)c(-c2ccc(=O)n(C)c2-c2c(F)cccc2F)c1` [Compound 257]: in test [1] (250 ppm spray), the “Test D control value” value is recorded as “H (H shows more than 50% of control values)”. For the same molecule, the “Test B control value” value in the test on Botrytis cinerea (250 ppm spray) was “H (H shows more than 50% of control values)”. Also, the “Test G control value” value in the test on Plasmopara viticola (7-10 days after inoculation) is given as “L (L shows 50% or less of control values)”. Besides, the “Test C control value” value in the test on Alternaia brassicicola (250 ppm spray) is reported as “H (H shows more than 50% of control values)”. For the same molecule, in the test with Puccinia recondita (250 ppm spray), the “Test E control value” value is “H (H shows more than 50% of control values)”.

Turning to `CCn1c(-c2c(F)cccc2F)c(-c2c(F)c(F)c(F)c(F)c2F)cc(Cl)c1=O` [Compound 372], in test [1] (250 ppm spray), the “Test D control value” value is “L (L shows 50% or less of control values)”. For the same molecule, the “Test B control value” value in the test on Botrytis cinerea (250 ppm spray) is “L (L shows 50% or less of control values)”. Moreover, in the test on Plasmopara viticola (7-10 days after inoculation), the “Test G control value” value is reported as “L (L shows 50% or less of control values)”. In addition, the “Test C control value” value with Alternaia brassicicola (250 ppm spray) is recorded as “H (H shows more than 50% of control values)”. For the same molecule, the “Test E control value” value with Puccinia recondita (250 ppm spray) was “H (H shows more than 50% of control values)”.

Turning to `CCOc1cc(F)c(-c2c(-c3cccc(F)c3C)ccc(=O)n2CC)c(F)c1` [Compound 698], the “Test D (control value class, powdery mildew on barley)” value in test [1] is reported as “H (H shows more than 50% of control values)”. In the test with Botrytis cinerea, the “Test B (control value class, gray mold on tomato)” value is listed as “H (H shows more than 50% of control values)”. The “Test G (control value class, downy mildew on vine)” value with Plasmopara viticola is listed as “H (H shows more than 50% of control values)”. Moreover, the “Test C (control value class, Alternaria sooty spot on cabbage)” value in the test on Alternaia brassicicola is “H (H shows more than 50% of control values)”. Further, the “Test E (control value class, brown rust on wheat)” value in the test with Puccinia recondita is reported as “H (H shows more than 50% of control values)”.
